Results published in PubChem BioAssay AID488969 (Vanderbilt High Throughput Screening Facility, 2010).
In all, about 110,000 compounds were measured (“z-score”: median about -0.1, highest 2% from about 2 on). Some of the results follow. Activity calls are given as the source filed them.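 The calls were made as follows: active = z-score in the third read window above 3 or below -3; inactive = the rest.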

target: Metabotropic glutamate receptor 8 (Rattus norvegicus) (UniProt P70579); test: rat mGluR8 modulators via GIRK flux, primary screen, cell-based, thallium flux, HTS (AID 488969); conditions: HEK293 rat mGluR8, GIRK (G protein-gated inwardly rectifying potassium channel) thallium flux, FluoZin2; at 10 µM; stronger effect = higher value; submaximal glutamate (EC20) added with thallium
Chain of UniProt P70579 (P70579 whole entry, looked up): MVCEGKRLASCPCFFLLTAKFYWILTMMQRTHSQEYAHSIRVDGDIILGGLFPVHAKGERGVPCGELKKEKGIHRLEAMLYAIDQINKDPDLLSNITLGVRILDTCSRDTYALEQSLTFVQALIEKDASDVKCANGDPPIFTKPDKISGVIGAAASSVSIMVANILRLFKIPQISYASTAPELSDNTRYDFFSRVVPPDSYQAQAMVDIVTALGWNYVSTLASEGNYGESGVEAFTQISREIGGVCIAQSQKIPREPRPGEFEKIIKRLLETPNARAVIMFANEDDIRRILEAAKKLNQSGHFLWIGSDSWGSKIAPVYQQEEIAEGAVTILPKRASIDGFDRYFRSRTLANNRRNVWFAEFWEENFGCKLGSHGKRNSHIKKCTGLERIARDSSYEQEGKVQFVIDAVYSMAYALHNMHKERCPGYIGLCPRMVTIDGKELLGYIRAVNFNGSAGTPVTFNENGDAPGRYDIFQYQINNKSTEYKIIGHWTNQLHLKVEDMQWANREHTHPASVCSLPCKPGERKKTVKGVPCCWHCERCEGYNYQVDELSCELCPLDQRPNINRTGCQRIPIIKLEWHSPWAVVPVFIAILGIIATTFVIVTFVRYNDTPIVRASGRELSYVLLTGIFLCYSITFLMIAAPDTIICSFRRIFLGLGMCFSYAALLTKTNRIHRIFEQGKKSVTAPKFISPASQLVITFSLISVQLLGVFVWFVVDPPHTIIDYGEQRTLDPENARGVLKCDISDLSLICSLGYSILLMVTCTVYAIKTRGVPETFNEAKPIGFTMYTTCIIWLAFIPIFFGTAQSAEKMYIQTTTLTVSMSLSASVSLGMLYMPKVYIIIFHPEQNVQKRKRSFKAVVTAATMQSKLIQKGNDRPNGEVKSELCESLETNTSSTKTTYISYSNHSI

Structure (SMILES) | z-score
CCC(=O)Nc1nnc(-c2ccncc2)s1 | 0.0463
O=C(CSc1nc(-c2ccco2)cc(C(F)(F)F)n1)Nc1ccc2c(c1)OCO2 | -0.308
O=c1c2ccccc2nc2n1CCN2 | 0.253
O=C(Nc1ccccc1)c1ccc(OC(=O)c2cc3ccccc3o2)cc1 | -0.284
COCCCNC(=O)c1ccccc1Oc1ccccc1 | -0.0104
CCCCOc1ccc(NC2=NC3(CCCCC3)N=C(N)N2)cc1 | -0.113
COc1ccc(CCNC(=O)CN2CCN(c3cccc(C(F)(F)F)c3)CC2)cc1 | -0.129
C=CCOc1ccc2c(OC)c3ccoc3nc2c1OC | 0.395
CCCNC(=O)CN1C(=O)NC2(CCCc3cc(OC)ccc32)C1=O (stereo not drawn) | 0.324
Cc1ccc(S(=O)(=O)NCCC(=O)NCc2ccccc2)cc1 | -0.0179
O=C(CCS(=O)(=O)c1ccc(Br)cc1)Nc1ccc2c(c1)OCO2 | 0.326
COc1ccccc1C1(CC(=O)N2CCOCC2)CCOC(C(C)C)C1 (stereo not drawn) | 0.121
CSc1nsc(SCC(=O)Nc2c(C)n(C)n(-c3ccccc3)c2=O)n1 | -0.133
CCCCCOC(=O)Nc1nnc(CCCCC)s1 | -0.221
COc1ccc(C(NC(=O)c2cccc(F)c2)c2ccccc2)cc1 (stereo not drawn) | -0.165
CCOC(=O)c1cnc(-c2ccccc2)nc1Oc1ccc(C)cc1 | 2.4
COc1ccc(/C(N)=N/OC(=O)Oc2ccccc2)cc1 | 0.353
Cn1cccc1/C=N/NC(=O)c1ccc(OC(F)(F)C(F)F)cc1 | -0.413
Cc1ccc(NC(=O)C(c2ccccc2)C2CCCC2)cc1 (stereo not drawn) | active: 3.36
CCOC(=O)C1=NN(c2ccc(Cl)cc2)C(c2ccccc2)CC1=O (stereo not drawn) | -0.352
O=C(CN1C(=O)COc2ccccc21)N1CCc2ccccc2C1 | -0.00361
COCCNC(=O)/C(C#N)=C1\N=C(N)c2ccccc21 | 0.0573
Cc1ccccc1OCCCn1c(=O)sc2ccccc21 | 0.121

Structure (SMILES) | z-score
CCCCNC(=S)NNC(=O)c1cccnc1 | -0.14
CCc1ccc(Nc2nnc(SCC(=O)Nc3cccc(S(=O)(=O)NC4=NCCCCC4)c3)s2)cc1 | -0.205
CCc1nnc(NC(=O)CN2CCOCC2)s1 | 0.409
c1ccc2c(CCNc3ncnc4nc[nH]c34)cccc2c1 | -0.86
Cc1ccc2nnc(Cl)n2n1 | 0.23
O=C(Cn1nc(-c2ccccc2F)ccc1=O)NCc1ccc2c(c1)OCO2 | -0.15
CCn1c(Cc2cccs2)nnc1SCC(=O)Nc1ccc(OC)c(OC)c1 | -0.278
CC(C)COc1ccc(Cc2cnc(N)nc2N)cc1 | active: 7.02
CCc1ccc(OCC(=O)N2CCN=C2c2ccccc2)cc1 | -0.751
Cc1ccc(-n2nnnc2-c2cnn(-c3ccc(F)cc3)c2C(F)(F)F)cc1 | -0.0832
CCn1c(N)c(C(N)=O)sc1=S | 0.203
Cc1ccc(S(=O)(=O)N/N=C\c2ccc(C)o2)cc1 | -0.111
CCOC(=O)N1CCN(C(=O)CCNS(=O)(=O)c2cc(Br)cnc2N)CC1 | -0.318
CCCS(=O)(=O)N1CCN(Cc2ccc([N+](=O)[O-])cc2)CC1 | -0.0547
O=[N+]([O-])c1ccc(Cl)c(CN2CCSCC2)c1 | -0.333
COc1ccc(COC(=O)NNC(=O)c2ccccc2Cl)cc1 | 0.289
CN(C)S(=O)(=O)c1ccc(C(=O)NCc2cccs2)cc1 | 0.819
Cc1cc(C)n2nc(SCC(=O)N/N=C/c3cccc(Br)c3)nc2n1 | -0.0108
COc1ccc(-c2nc(-c3ccc(Br)cc3)no2)c(OC)c1 | -0.0711
CN(C)S(=O)(=O)N1CCN(S(=O)(=O)N(C)C)CC1 | -0.552
Cn1nnc2cc(C(=O)NCc3ccc4c(c3)OCO4)ccc21 | 0.0433
CN(c1ccccc1C(=O)Nc1ccc(S(=O)(=O)N2CCCC2)cc1)S(C)(=O)=O | -0.101
CSCCC(NC(=O)c1ccc([N+](=O)[O-])cc1Cl)C(=O)OCC(=O)N(C)C (stereo not drawn) | 0.124

Structure (SMILES) | z-score
O=C(Nc1cc(C(=O)N2CCOCC2)ccc1N1CCCC1)c1cccs1 | 0.184
COc1ccc(C2(O)CC3CCC(C2)N3c2nc(C)cc(C)c2C#N)cc1 (stereo not drawn) | -0.362
Nn1c(SCC(=O)Nc2ccc(Oc3ccccc3)cc2)nnc1C1CC1 | 0.0661
O=C(Nc1nc(-c2ccc(Cl)cc2Cl)cs1)c1ccc(OCC2CCCO2)cc1 (stereo not drawn) | -0.323
CCOC(=O)C1=C(CSc2nc3c(cc2C#N)CN(C)CC3)OC(N)=C(C#N)C1c1ccc(F)cc1 (stereo not drawn) | 1.37
COc1ccc(CCNC(=O)c2ccc(=O)[nH]n2)cc1OC | 0.0663
Cc1cccc(NC2=NC(C)(C)N=C(N)N2)c1C | -0.302
Cc1cccc(OCCCn2ccnc2)c1 | 0.218
CCC(OC(=O)c1cccs1)C(=O)NCc1ccc2c(c1)OCO2 (stereo not drawn) | 0.764
CCCc1cc(=O)[nH]c(Nc2ccc(N3CCCCC3)cc2)n1 | -0.473
COc1ccc(C(=O)/C=C2/Sc3cc4c(cc3N2C)OCO4)cc1 | -0.13
CC(C)(C)c1nnc2sc(SC/C(O)=C(\C#N)c3nc4ccccc4[nH]3)nn2c1=O | -0.281
C=C(C)C1CC=C(C)/C(=N/Nc2ccccc2[N+](=O)[O-])C1 (stereo not drawn) | -0.027
O=C(Nn1c(O)c(C=C2N=c3ccccc3=N2)sc1=S)c1ccccc1 | -0.256
CCS(=O)(=O)c1ccc(NC(=O)c2ccccc2Cl)c(O)c1 | 0.13
CCOc1cc(/C=N/O)cc(Br)c1OCc1ccc(Cl)cc1 | -0.101
CCOC(=O)/C(N=Nc1cc(C(=O)O)cc(C(=O)O)c1)=C(\O)CCl | 0.168
COc1ccc(C(CNC(=O)c2cccc(Br)c2)N2CCCC2)cc1 (stereo not drawn) | 0.745
Clc1ccc(-c2onc3c2CCCC3)cc1 | 0.232
O=C(N/N=C/c1ccc(O)cc1)c1cc(-c2ccc3c(c2)OCO3)n[nH]1 | 0.108
O=C(CSc1nc2sc3c(c2c(=O)n1Cc1ccco1)CCC3)N1CCc2ccccc21 | -0.0881
CC(Nc1cc(N2CCN(C(=O)C(C)(C)C)CC2)ccc1[N+](=O)[O-])c1ccccc1 (stereo not drawn) | -0.572
Cc1ccc(CN(C(=O)C(F)(F)F)C(C(=O)NC2CCCCC2)c2ccco2)cc1 (stereo not drawn) | -1.39

Structure (SMILES) | z-score
O=C(NCCN1C(=O)S/C(=C\c2ccc(OC(F)F)cc2)C1=O)c1cnccn1 | -1.08
CCc1ccc(NC(=O)CN2CCc3ccccc3C2)cc1 | -0.133
C/C(N)=C(/C#N)C(=O)CSc1nnc(NC(C)C)s1 | -0.0621
CCn1c(C(=O)N2CCc3ccccc3C2)cc2sccc21 | -0.52
Cc1oc2cc(OCc3cnn(-c4ccccc4)c3)ccc2c(=O)c1Oc1ccccc1F | -0.247
COc1ccc(-c2c[n+]3c4n2CCCCC4=C(c2ccccc2)C3)cc1 | 2.82
CC1=C(C(=O)Nc2cc(C)ccc2C)C(c2cccs2)NC(=S)N1 (stereo not drawn) | -0.0019
CCOCCCNC(=O)CCCn1nc(C)n2c(cc3sccc32)c1=O | -0.0689
CCn1c(CNC(=O)c2cccs2)nnc1SCC(=O)Nc1cc(Cl)ccc1C | -0.182
Cn1c(C(=O)OCC(=O)NCc2cccs2)cc2sccc21 | 0.0571
Cc1cccc2cc(C(c3nnnn3CC3CCCO3)N3CCc4ccccc4C3)c(=O)[nH]c12 (stereo not drawn) | 0.214
COc1cc(C(=O)NCCc2cn3ccccc3n2)cc(OC)c1OC | 0.348
CC(=O)Nc1cc(C(=O)N2CCCC2)ccc1Sc1ccc(C)cc1 | -1.21
NC(=O)NCc1cccc(Cl)c1 | -0.00917
FC(F)(F)c1cc(-c2cccs2)nc(NCc2ccco2)n1 | -0.0471
Cc1cc(Cl)c(S(=O)(=O)Nc2cccc(O)c2)cc1OCC(N)=O | -0.133
COC(=O)c1cncc(O)c1 | 0.035
CCCOc1ccc([N+](=O)[O-])c(N)c1 | -0.16
Cc1ccc(NC(=O)NC(=O)N(C2CCCCC2)S(=O)(=O)c2ccccc2)cc1 | -0.229
NS(=O)(=O)c1cccnc1Nc1cccc(Cl)c1Cl | -0.19
O=C(O)c1cn[nH]c1-n1cnnn1 | 0.428
Nc1nc(N)c2sc3nc(C(F)(F)F)cc(C(F)(F)F)c3c2n1 | -0.0304
CN(C)c1nc(N)nc(CSc2nnnn2C)n1 | 0.687

Structure (SMILES) | z-score
Cn1cccc1CNCc1ccccc1Cl | -0.103
CCC(=O)N(CC)C1=C(O)c2ccccc2C(=O)C1=O | -0.181
COc1ccccc1N1CCN(C(=O)c2cc(-c3ccc(Cl)c(Cl)c3)on2)CC1 | -0.219
Cn1nccc1C(=O)N1CCN(c2ccc(F)cc2)CC1 | -0.126
c1ccc(CN2CCN(C(c3ccccc3)c3nnnn3Cc3ccccc3)CC2)cc1 (stereo not drawn) | 0.427
O=C(COC(=O)c1ccccc1C(=O)c1ccccc1)NCCc1ccc(Cl)cc1Cl | -0.0656
N/C(=N\OC(=O)c1cccc(Br)c1)c1ccc(Br)cc1 | -0.325
Cc1nnsc1NC(=O)OCc1ccc(C(F)(F)F)cc1 | 0.0066
O=C(CSc1nc2ccc(Nc3nc(N4CCOCC4)nc(N4CCOCC4)n3)cc2s1)N1CCOCC1 | -0.0699
COc1ccc(NS(=O)(=O)c2ccc(NC(=S)NC(=O)c3ccc(F)cc3)cc2)nn1 | -0.142
C/C(=N\NC(=O)c1nn(C)cc1Cl)c1ccncc1 | -0.323
Cc1[nH]c2ccccc2c1C1=CN2CCS(=O)(=O)N=C2S1 | 0.0958
O=C(CN1CCN(c2cccc(C(F)(F)F)c2)CC1)Nc1cccc(C(F)(F)F)c1 | 1
COc1ccccc1NC(=O)CC(c1ccc(OC(C)C)cc1)c1ccccc1OC (stereo not drawn) | -0.193
COc1ccccc1C(=O)NN=C1CCN(Cc2ccccc2)CC1 | -0.0272
CCOC(=O)c1[nH]c(C)c(C(=O)OCC(=O)N2CCc3ccccc32)c1C | -0.0546
COC(=O)Cn1c(=NC(=O)c2cc(-c3cccs3)nc3ccccc23)sc2cc(S(N)(=O)=O)ccc21 | -0.289
Cc1ccc(/C=c2\sc3n(c2=O)CN(c2ccc(Br)cc2)CN=3)o1 | -1.97
CCCNC(=O)C(Cc1ccccc1)NS(=O)(=O)c1ccc2c(c1)c(=O)n(C)c(=O)n2C (stereo not drawn) | 0.0163
CC1=NC(=O)C(N=Nc2cccc(C(=O)O)c2)N1c1ccccc1 (stereo not drawn) | -0.167
O=C(Nn1c(C2CCCCC2)nc2ccccc2c1=O)c1cc(Cl)ccc1[N+](=O)[O-] | 0.0592
